The experiment deals with GTPase KRas (Homo sapiens) (UniProt P01116). The experiment can be described thus: Covalent labelling of cysteine mutants by fragments, read by mass spectrometry (AID 2202238). Also on record: protein at 5 µM with 500 µM competing thiol for 1.5 h. As to conditions: KRAS G12D cysteine mutants, disulfide tethering, MALDI-TOF labeling, stronger effect = higher value, fragment at 500 µM.

The mark [1] stands for this setting: measured here: G75C mutant labeling.
The mark [2] stands for this setting: measured here: H94C mutant labeling.
[3] abbreviates: measured here: I36C mutant labeling.
Setting [4] is: measured here: L120C mutant labeling.
Setting [5] is: measured here: M67C mutant labeling.
The mark [6] stands for this setting: measured here: M72C mutant labeling.
[7] abbreviates: measured here: N86C mutant labeling.
Where [8] appears, read: measured here: P121C mutant labeling.
Setting [9] is: measured here: S122C mutant labeling.
The mark [10] stands for this setting: measured here: S136C mutant labeling.
[11] abbreviates: measured here: G60C mutant labeling.
Setting [12] is: measured here: N26C mutant labeling.

The other results are listed elsewhere or left out. These are further read-outs of the screen, such as a control signal, another cell line or another target. No call is given for them.

Chain of UniProt P01116 (P01116 whole entry, looked up, the tested form may be a part): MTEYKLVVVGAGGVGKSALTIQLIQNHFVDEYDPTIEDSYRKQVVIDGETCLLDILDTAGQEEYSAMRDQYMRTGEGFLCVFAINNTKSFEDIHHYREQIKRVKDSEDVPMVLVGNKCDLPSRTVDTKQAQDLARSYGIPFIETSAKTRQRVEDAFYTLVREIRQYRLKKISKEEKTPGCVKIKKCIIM

As for `O=C(CCS)NCc1c(F)cccc1OC(F)F`, the percent labeling reads like this: under setting [1], 13.9%; under setting [2], 40.9%; under setting [3], 40.3%; under setting [4], 34.7%; under setting [5], 39.8%; under setting [6], 42.8%. The percent labeling runs as follows: under setting [7], 35.3%; under setting [8], 35.2%; under setting [9], 40.6%; under setting [10], 62.7%.

Consider `O=C(NCCS)c1cc2c(C(F)(F)F)cc(=O)[nH]c2o1`, for which the percent labeling was determined as 59.3% under setting [11]; 27.9% under setting [1]; 32.9% under setting [2]; 26.9% under setting [3]; 45.5% under setting [4]; 33.2% under setting [5]. Also, the percent labeling by setting is: under setting [6], 56.6%; under setting [12], 43.8%; under setting [7], 30.3%; under setting [8], 34.4%; under setting [9], 39.7%; under setting [10], 43.2%.

Turning to `CCOC(=O)c1cnc(N2CCN(C(=O)CCS)CC2)s1`, the percent labeling runs as follows: under setting [1], 11.4%; under setting [2], 24.9%; under setting [3], 30.2%; under setting [4], 18.6%; under setting [5], 27.2%; under setting [6], 21.4%. The compound further yielded a percent labeling under setting [7] of 22.1%, a percent labeling under setting [8] of 18.4%, a percent labeling under setting [9] of 19.1% and a percent labeling under setting [10] of 34.6%.

Regarding `CN1C2(CCC2)COCC1(CO)CNC(=O)CCS` (centres undefined), the percent labeling reads like this: under setting [1], 8.2%; under setting [2], 34.2%; under setting [3], 42.5%; under setting [4], 31.1%; under setting [5], 37.9%; under setting [6], 13.7%. The percent labeling by setting is: under setting [7], 24.7%; under setting [8], 30.9%; under setting [9], 31.8%; under setting [10], 47.7%.

For the compound `O=C(Cc1ccc(N2CCCC2=O)cc1)NCCS`, the percent labeling amounted to 37.5% under setting [11]; 14.5% under setting [1]; 35.6% under setting [2]; 27.1% under setting [3]; 38.6% under setting [4]; 30.8% under setting [5]. This compound also returned a percent labeling under setting [6] of 36.9%; a percent labeling under setting [12] of 40.2%; a percent labeling under setting [7] of 30.7%; a percent labeling under setting [8] of 32%; a percent labeling under setting [9] of 32.1%; a percent labeling under setting [10] of 44.3%.

Consider `Cc1nc(CN2CCN(C(=O)CCS)CC2)oc1C`, for which the percent labeling reads like this: under setting [1], 8.7%; under setting [2], 31.6%; under setting [3], 36.1%; under setting [4], 30.8%; under setting [5], 41.6%; under setting [6], 20.6%. For the same compound, the percent labeling was 29.8% under setting [7], 38.2% under setting [8], 39.3% under setting [9] and 61.4% under setting [10].

Consider `O=C(Cc1nc2ccccn2c1Br)NCCS`, for which the percent labeling is, setting by setting: under setting [11], 35.2%; under setting [1], 13.9%; under setting [2], 23.3%; under setting [3], 18.1%; under setting [4], 45.3%; under setting [5], 15.7%. Further, the percent labeling reads like this: under setting [6], 19.5%; under setting [12], 21.1%; under setting [7], 11.2%; under setting [8], 20.2%; under setting [9], 10.4%; under setting [10], 30%.

For the compound `O=C(Cn1cnc(-c2ccccc2)n1)NCCS`, the percent labeling runs as follows: under setting [11], 26.5%; under setting [1], 5.1%; under setting [2], 23%; under setting [3], 25%; under setting [4], 41.6%; under setting [5], 36.8%. For the same compound, the percent labeling is, setting by setting: under setting [6], 21.7%; under setting [12], 28.5%; under setting [7], 15.9%; under setting [8], 28.8%; under setting [9], 24%; under setting [10], 32.6%.

For the compound `O=C(NCCS)c1csc(C2CCCO2)n1` (centres undefined), the percent labeling runs as follows: under setting [11], 34.7%; under setting [1], 18.6%; under setting [2], 37.3%; under setting [3], 26.6%; under setting [4], 39.3%; under setting [5], 31.5%. Further, the percent labeling runs as follows: under setting [6], 35.3%; under setting [12], 39.5%; under setting [7], 20.8%; under setting [8], 28.6%; under setting [9], 31.3%; under setting [10], 52.6%.

Consider `COc1ccc(Br)c(C(=O)NCCCNC(=O)CCS)c1`, for which the percent labeling reads like this: under setting [1], 11.5%; under setting [2], 29.9%; under setting [3], 28.9%; under setting [4], 35.3%; under setting [5], 29.8%; under setting [6], 26.3%. Further, the percent labeling was 25.4% under setting [7], 30.1% under setting [8], 34.8% under setting [9] and 50.1% under setting [10].

Turning to `O=C(CCS)NC1CCN(c2nc(Cl)ncc2F)C1` (centres undefined), the percent labeling was 11.5% under setting [1]; 36.5% under setting [2]; 46.1% under setting [3]; 31.8% under setting [4]; 50.1% under setting [5]; 26.2% under setting [6]. For the same compound, the percent labeling runs as follows: under setting [7], 37.1%; under setting [8], 33.3%; under setting [9], 28.5%; under setting [10], 51.4%.

Consider `CCCc1noc(-c2cccc(CNC(=O)CCS)c2)n1`, for which the percent labeling amounted to 15.3% under setting [1]; 25.3% under setting [2]; 29.8% under setting [3]; 18.7% under setting [4]; 25.6% under setting [5]; 36.4% under setting [6]. Also, the percent labeling under setting [7] was found to be 21.5%, the percent labeling under setting [8] worked out at 21.9%, the percent labeling under setting [9] was determined as 19.8% and the percent labeling under setting [10] is 38.8%.

With `O=C(NCCS)C1CCCN1c1ncc(C(F)(F)F)cc1Cl` (centres undefined), the percent labeling runs as follows: under setting [11], 38.5%; under setting [1], 14.1%; under setting [2], 45.9%; under setting [3], 7.9%; under setting [4], 17.4%; under setting [5], 13.5%. Further, the percent labeling is, setting by setting: under setting [6], 21.8%; under setting [12], 21.2%; under setting [7], 11.4%; under setting [8], 12.5%; under setting [9], 9.2%; under setting [10], 18.7%.

As for `CC(CC(=O)NCCS)N1CCc2ccccc21` (centres undefined), the percent labeling came to 23.9% under setting [11]; 0% under setting [1]; 6.8% under setting [2]; 3.2% under setting [3]; 11.9% under setting [4]; 10.1% under setting [5]. In addition, the percent labeling is, setting by setting: under setting [6], 3.3%; under setting [12], 8.5%; under setting [7], 0%; under setting [8], 12.2%; under setting [9], 3.7%; under setting [10], 3.6%.

As for `O=C(CCS)N1CCc2[nH]c3ccc(F)cc3c(=O)c2C1`, the percent labeling under setting [1] is 12.1%; the percent labeling under setting [2] stood at 30.3%; the percent labeling under setting [3] worked out at 37.3%; the percent labeling under setting [4] was determined as 26%; the percent labeling under setting [5] came to 32.8%; the percent labeling under setting [6] turned out to be 41.5%. Further, the percent labeling was found to be 22.5% under setting [7], 26.7% under setting [8], 21.7% under setting [9] and 55.8% under setting [10].

Consider `O=C(CCS)N1CCN(Cc2nc3ccsc3c(=O)[nH]2)CC1`, for which the percent labeling turned out to be 19.3% under setting [1]; 27.3% under setting [2]; 31.2% under setting [3]; 23.6% under setting [4]; 41.8% under setting [5]; 18.8% under setting [6]. The percent labeling runs as follows: under setting [7], 25.6%; under setting [8], 30.2%; under setting [9], 27.1%; under setting [10], 52.8%.

With `CCn1ncnc1-c1ccc(C(=O)NCCS)cc1`, the percent labeling is 42.1% under setting [11]; 20.7% under setting [1]; 31.8% under setting [2]; 27.3% under setting [3]; 41.3% under setting [4]; 36.3% under setting [5]. This compound gave a percent labeling under setting [6] of 43%; a percent labeling under setting [12] of 42.7%; a percent labeling under setting [7] of 31.9%; a percent labeling under setting [8] of 31.6%; a percent labeling under setting [9] of 30.8%; a percent labeling under setting [10] of 47.9%.

Regarding `O=C(CCS)NC1CCc2sc(Cl)cc21` (centres undefined), the percent labeling came out at 14.7% under setting [1]; 33.1% under setting [2]; 26.9% under setting [3]; 19.3% under setting [4]; 22.3% under setting [5]; 31.8% under setting [6]. In addition, the percent labeling is, setting by setting: under setting [7], 16.9%; under setting [8], 24%; under setting [9], 19.2%; under setting [10], 44%.

In turn, `O=C(NCCS)C1CCN(S(=O)(=O)c2ccc(F)cc2Cl)CC1` yielded a percent labeling under setting [11] of 15.9%; a percent labeling under setting [1] of 7.8%; a percent labeling under setting [2] of 10.4%; a percent labeling under setting [3] of 10.2%; a percent labeling under setting [4] of 13.4%; a percent labeling under setting [5] of 11%. The percent labeling is, setting by setting: under setting [6], 22.6%; under setting [12], 26.1%; under setting [7], 8.1%; under setting [8], 10.5%; under setting [9], 8.8%; under setting [10], 14.8%.

`Cc1nn(CCO)cc1CNC(=O)CCS` had a percent labeling under setting [1] of 8.2%; a percent labeling under setting [2] of 29.7%; a percent labeling under setting [3] of 38%; a percent labeling under setting [4] of 29.4%; a percent labeling under setting [5] of 34%; a percent labeling under setting [6] of 16%. In addition, the percent labeling by setting is: under setting [7], 16.8%; under setting [8], 33.7%; under setting [9], 37.6%; under setting [10], 44.9%.

With `O=C(NCCS)C1(C(F)(F)F)CCCCO1` (centres undefined), the percent labeling under setting [11] came to 38.7%; the percent labeling under setting [1] was 16.8%; the percent labeling under setting [2] was determined as 32.2%; the percent labeling under setting [3] was 22.3%; the percent labeling under setting [4] was 36%; the percent labeling under setting [5] was 25%. For the same compound, the percent labeling by setting is: under setting [6], 26.5%; under setting [12], 32.3%; under setting [7], 37.9%; under setting [8], 32.5%; under setting [9], 32%; under setting [10], 37.6%.

In turn, `O=C(NCCS)c1c[nH]cc1-c1cc(Cl)c2c(c1)OCCO2` came in with a percent labeling under setting [11] of 34.1%; a percent labeling under setting [1] of 26.8%; a percent labeling under setting [2] of 29.7%; a percent labeling under setting [3] of 7.9%; a percent labeling under setting [4] of 18.9%; a percent labeling under setting [5] of 13.9%. Besides, the percent labeling is, setting by setting: under setting [6], 38.8%; under setting [12], 15.6%; under setting [7], 6%; under setting [8], 9.7%; under setting [9], 4.1%; under setting [10], 10%.

On to `O=C(NCCS)c1ncsc1-c1ccccc1`, for which the percent labeling is, setting by setting: under setting [11], 47.9%; under setting [1], 21.3%; under setting [2], 36.5%; under setting [3], 16.2%; under setting [4], 31.2%; under setting [5], 21.9%. The percent labeling was 37% under setting [6]; 35.8% under setting [12]; 23.5% under setting [7]; 23.2% under setting [8]; 13% under setting [9]; 34.7% under setting [10].
